Data as given in PMC7467691, “Meiotic chromosome synapsis depends on multivalent SYCE1-SIX6OS1 interactions that are disrupted in cases of human infertility” (Science Advances, 2020).
Results are given in words; binding and its absence hold for the method and conditions named. Sequences can lack the tags named with a protein.

Target: T1, MBP-SIX6OS1N (MBP-SIX6OS1 1–67) (human) (UniProt Q8N1H7)
T1 sequence: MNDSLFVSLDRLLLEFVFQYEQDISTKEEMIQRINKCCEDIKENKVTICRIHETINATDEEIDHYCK
Assay: SEC-MALS; 5 to 20 mg/ml in 20 mM tris (pH 8.0), 150 mM KCl, 2 mM DTT; Superdex 200 Increase 10/300 GL at 0.5 ml/min; both purified

binding: no binding (tested: 5 to 20 mg/ml)
B1: MBP-SIX6OS1N (MBP-SIX6OS1 1–67) (domain or fragment, UniProt Q8N1H7 1-67)
chain: MNDSLFVSLDRLLLEFVFQYEQDISTKEEMIQRINKCCEDIKENKVTICRIHETINATDEEIDHYCK
